Data published in PubChem BioAssay AID1963836 (Molecular Pharmacology Branch, DTP, NCI, 2024).
The source holds more than one record for some entries. This list holds those alone. An entry can have further records. Values given together repeat one measurement (runs, samples, wells, individuals or studies). Counts like (3×) give the number of equal values in this list.

System: 857933-349-R-J2-PDC complex spheroid viability
Assay: Anticancer human tumor 857933-349-R-J2-PDC patient-derived colon adenocarcinoma cell line growth inhibition [POLQ]
Conditions: stronger effect = lower value
Method: Multicellular complex tumor spheroid response to Polymerase (POL) inhibitors (novobiocin, ART-558, RP6685) in combination with a variety of drugs and investigational agents in selected tumor cell lines
The POL inhibitors (novobiocin, ART-558, and RP6685) were evaluated both individually and in combination with standard of care and investigational anticancer small molecules within a complex spheroid model of solid tumors. . Complex spheroids include a stromal component modeled by human endothelial cells (HUVEC) and fibroblasts modeled by human mesenchymal stem cells (MSCs). The concentration ranges selected for each drug and investigational agent were based upon clinically achievable concentrations if the clinical Cmax of the agent was known.
Compounds. The drugs and investigational agents: novobiocin (NSC847541), ART-558 (NSC835418), RP-6685 (NSC848927), peposertib (NSC802822), ceralasertib (NSC780249), elimusertib (NSC800525), camonsertib (NSC841442), AZD-1390 (NSC803789), olaparib (NSC753686), talazoparib (NSC767125), rucaparib (NSC756644), sotorasib (NSC818433), MRTX-1133 (NSC836407), SN-38 (NSC673596), topotecan (NSC609699), epotoside (NSC141540), doxorubicin (NSC123127), gemcitabine (NSC613327), 5-fluorouracil (NSC19893), paclitaxel (NSC125973), vemurafenib (NSC761431), MSA-2 (NSC828583), SN-011 (NSC837082), adavosertib (NSC754352), prexasertib (NSC758257), carboplatin (NSC241240) and oxaliplatin (NSC266046), were obtained from the National Cancer Institute (NCI) Developmental Therapeutics Program Chemical Repository (21). The FDA-approved anticancer drug set is available from the Developmental Therapeutics Program at https://dtp.cancer.gov/organization/dscb/obtaining/. […] The stock solutions were prepared in dimethyl sulfoxide (DMSO, Sigma-Aldrich, St. Louis, MO, cat. D2650), except for the platinum compounds which were prepared in saline (Quality Biological, Gaithersburg, MD, cat. 114-055-101), at 800-fold the tested concentration and stored at -70 degrees C prior to their use. All drugs and investigational agents were tested over a range starting from a high concentration at or near the clinical Cmax and decreasing in half-log increments. If the clinical Cmax for an agent had not been determined, the highest concentration tested was 10 microM, except for SN-38, which was tested at a high concentration of 1 microM.
Cell Culture. All cells were maintained in an incubator at 37 degrees C and 5% CO2 with 95% humidity. The PDC lines were cultured according to standard operating procedures established by the NCI PDMR (https://pdmr.cancer.gov). Table 3 of the manuscript, lists the cell lines along with the number of the three cell types plated to form the mct-spheroids and media for tumor cell growth. After thawing, all PDC lines, except 997537-175-T-J1-PDC and 415267-285-R-J2-PDC, were cultured in Matrigel-coated flasks prepared with a working solution of 1X Ham's F-12 nutrient mix, without supplementation (Thermo Fisher Scientific, cat. 11765054), 100 U/mL penicillin-streptomycin (Thermo Fisher Scientific, cat. 15140122), and 2.5% Matrigel (Corning Inc., Corning, NY, cat. 354248) for the first three passages. The two PDC lines 997537-175-T-J1-PDC and 415267-285-R-J2-PDC were cultured on uncoated flasks. The 857933-349-R-J2-PDC line was cultured in 6C/Colon 1B media containing advanced DMEM/F-12 (Thermo Fisher Scientific, cat. 12634028), 10 mM HEPES (Thermo Fisher Scientific, cat. 15630080), 1X GlutaMAX supplement (Thermo Fisher Scientific, cat. 35050061), 0.1 mg/mL primocin (InvivoGen, San Diego, CA, cat. ant-pm-2), 10% defined fetal bovine serum, heat inactivated (HyClone Laboratories Inc., Logan, UT, cat. SH30070.03HI), 50% L-WRN conditioned media (ATCC, cat. CRL-3276), 1.25 mM N-Acetyl-L-cysteine (Sigma-Aldrich, cat. A9165), 10 mM nicotinamide (Sigma-Aldrich, cat. N0636), 1X B-27 supplement (Thermo Fisher Scientific, cat. 17504044), 1X N-2 supplement (Thermo Fisher Scientific, cat. […]
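Further: spheroids exposed to compounds for seven days before readout.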

| SMILES | viability, T/C (compound alone 0.0316 µM) | viability, T/C (compound alone 0.1 µM) | viability, T/C (compound alone 0.316 µM) | viability, T/C (compound alone 1 µM) | viability, T/C (compound alone 3.16 µM) | viability, T/C (compound alone 10 µM) |
| --- | --- | --- | --- | --- | --- | --- |
| COC1C(OC(N)=O)C(O)C(Oc2ccc3c(O)c(NC(=O)c4ccc(O)c(CC=C(C)C)c4)c(=O)oc3c2C)OC1(C)C (configuration not stated) | 106, 89.9, 86.2, 84.9, 83.6, 83.4, 95, 89.2, 114, 78.5, 104, 101, 73% | 90.1, 94.7, 98.7, 84.4, 97.1, 117, 78.1, 80.1, 91, 107, 118, 94, 102% | 93.2, 92.6, 93.9, 107 (2×), 89, 89.1, 93.6, 105, 82.6, 121, 73.9, 89.5% | 84.1, 114, 120, 90, 88.3, 94, 104, 99.7, 93.4, 84, 84.3, 92.4, 93.5% | 94.6, 114, 107, 100, 110, 87.1, 101, 99.1, 111, 83, 96.8, 84, 105% | 91.2, 92.5, 107, 91.4, 88.6, 117, 101, 112, 99.1, 76, 94.2, 91.5, 93.3% |
| Cc1cccc(N(C)C(=O)C2C(O)CCN2c2nc(C)cc(C(F)(F)F)c2C#N)c1 (configuration not stated) | – | 109, 92.9, 99.6, 100, 79.3, 87.9, 88, 131, 88.5, 99.3, 108, 87.7, 103% | 74.3, 92.2, 109 (2×), 79.1, 79.8, 93.7, 83.2, 83.5, 96.8, 93.9, 110, 103% | 84, 103, 89.1, 83.5, 89.4, 113, 61.4, 102, 96.9, 99.3, 104, 109, 112% | 94, 108, 85.2, 96.7, 103, 101, 91.9, 82.5, 116, 115, 102, 95.8, 109% | 107, 97.3, 93.4, 95.6, 80.4, 94.4, 76.2, 104, 94.1, 105, 86.5, 100, 97.1% |
| Nc1ccc(C#CCN(C(=O)Cc2ncc(C(F)(F)F)cc2C(F)(F)F)c2ccc(F)cc2)nn1 | – | – | – | – | 103 (2×), 98.9, 100, 104, 96.4, 93.5, 111, 96.3, 85.9, 96.6, 97.3, 98.6% | – |
